B1: chr4:17625889:17625890:+_ENSG00000118579_ENST00000237380|hu_hu|FALSE|FALSE (ssRNA)
RNA: GGGAGUUCUACAGUCCGACGAUCAGAGCUCUGGAAACAUUACAAAUAUUGUAUUAGAUUCCUCUUCUUGAGGUAGUUCAAAGUCUUAAAACAGAGCAAAUUUACAUACUUUUCUACACACCACCGCGGGGUAAUUAUCAUAAGCAACAGAGGAUUGAGCAUCA
B2: chr12:54126753:54126754:+_ENSMUSG00000061603_ENSMUST00000095737|mus_hu|FALSE|FALSE (ssRNA)
RNA: GGGAGUUCUACAGUCCGACGAUCCUGCUCCUCUGACAUCAUCAGGUCGUGGCUGUCCAUCACAAGGGACUCCAUGUCAAUCAGCCAAUCCCAGAGCUCCUGAUAUUCUGAAUCAAAGUCCAGAAGCCCAUUGCUUCCCACUGACAACAGAGGAUUGAGCAUCA
B3: 74383303_74383423_1176_3pUTR_ENSG00000114978_ENST00000396049|human|control|control (ssRNA)
RNA: GGGAGUUCUACAGUCCGACGAUCUUAUUGAUGGAAAUUCUUAAUGUCCAUUGUGCUGUCACCUAAAACAGAUUCAAUCAUUUUCUUGUAAAGAAAUGACUGAGUAAAUGAGUAAAAGAAUAAUAAGUAAAUUUAUAAGCUACACAACAGAGGAUUGAGCAUCA
B4: chr17:6138058:6138059:+_ENSMUSG00000034377_ENSMUST00000152672|mus_mus|motif|central (ssRNA)
RNA: GGGAGUUCUACAGUCCGACGAUCAAGCCCUUCCCUCAAGCAGAGGUGGAGGCCUGCGGGUCACUGAGUAUGAAUAAACUGCGGUCGGAAUGGACCAAGUAGUUUCCUCAGUUUGGUCCUACUUCUUGCUUACACAGACUAGGCCAACAGAGGAUUGAGCAUCA
B5: chr7:7679991:7679992:-_ENSG00000106399_ENST00000396682|hu_hu|hu_hu_hu_mus_False|88_88 (ssRNA)
RNA: GGGAGUUCUACAGUCCGACGAUCUGGGAUGAAUCUUUUCCAGCUUCCCUACGAAGCACACGGGCCGGUCGAUAUACUGUGGUAACAUGCUGGCGUUGACGCGCGCUUUGGGGAGCUGCAUUAUGUCCUCCAUGAUUCUGCCGCCAACAGAGGAUUGAGCAUCA
B6: chr2:153237265:153237266:-_ENSMUSG00000061411_ENSMUST00000109784|mus_mus|mus_mus_mus_hu_False|58_108 (ssRNA)
RNA: GGGAGUUCUACAGUCCGACGAUCAAAAAAAAGAAAAAAAAAGUGUCCUUGUGCCCAAAGUCUCAGGUGCUUGGAGUGCAGCUAGAAACAGCUCUUUUGGAUCCCACCUCUUUCAAAAACAAAAUGUACCAACUGGUGAGGCAGCAACAGAGGAUUGAGCAUCA
B7: chr12:110819636:110819637:-_ENSG00000196510_ENST00000455511|hu_mus|FALSE|FALSE (ssRNA)
RNA: GGGAGUUCUACAGUCCGACGAUCAAGCCUGAUGGCCUCCCGAAAGUGUAUGAUGGCUUCCUGGACCCUCCCCAUGUUCCUAAGCGCCGCCCCCUUGAGUAACAGAGCCUGGACGCUGUUGCUGUUCAGCUGGAUGGCCUUGGCCAACAGAGGAUUGAGCAUCA
B8: chr6:170852807:170852808:-_ENSG00000008018_ENST00000262193|hu_mus|FALSE|FALSE (ssRNA)
RNA: GGGAGUUCUACAGUCCGACGAUCGAUGGUAGACAGCAUUGCAGCAAUCGCCCCCGUUGUCAUGGCCUUGUUAUUGGAAUGCUUGUACAUCUUUAAUCUUGCUUCAAUAAUCUUUGUCAAAGUGAGACAAUCUCCAUGGAAACCCAACAGAGGAUUGAGCAUCA
B9: 50489598_50490197_1917_CDS_ENSMUSG00000032064_ENSMUST00000117646|mouse|control|control (ssRNA)
RNA: GGGAGUUCUACAGUCCGACGAUCAGGGGGCCAGGAUGCCCGGUAUUCACUGCUUGCUUGAUUUCUGGGUGACCGCCCCCCAACCUUCCUUUCUUGUUUCUUCUGUGUCUCUACGACAUGCAGACGCUCCAUGAGGCUAGAGAUCAACAGAGGAUUGAGCAUCA
B10: 49438674_49439748_4755_CDS_ENSG00000167548_ENST00000301067|human|control|control (ssRNA)
RNA: GGGAGUUCUACAGUCCGACGAUCCAUGGUCAGGUUACGCAGCAAGGCCAUGCCAGUUUCUGUCAGCCACACACCUUCGAAGCGAAAGUACUGGGGCUCUGGCUCUUUCACCUUCAUGGGCACCAGCUCUGGAGGUGCAACAGGCAACAGAGGAUUGAGCAUCA
B11: 48734410_48737159_2188_CDS_ENSG00000162869_ENST00000294952|human|control|control (ssRNA)
RNA: GGGAGUUCUACAGUCCGACGAUCUCGGCACUCGGCAUAAAAAUGCACUGACUUACUGUCAGCCAGCUGCAACUGAGACGUAAGUUCCACUAUCCUUGCCAUGUAGUGAUUUUUAAUUAAGUCUUCACGAGAUUCCACAUCUGGCAACAGAGGAUUGAGCAUCA
B12: chr16:94651144:94651145:+_ENSMUSG00000040785_ENSMUST00000117648|mus_hu|mus_mus_mus_hu_True|28_58 (ssRNA)
RNA: GGGAGUUCUACAGUCCGACGAUCAUUUUCUUGAAUCAAGUGGCGAAUAACAUAGUCCACUGCUUCAUUUAGAAAAUUUUUGCUAGAAAAACAGGUUGUAUAGUCUUCCGUGCUCAGAACUUUCCAAGAAAGCAAUUCUUUGAGCAACAGAGGAUUGAGCAUCA
B13: 132805258_132805378_123_5pUTR_ENSG00000187239_ENST00000446176|human|control|control (ssRNA)
RNA: GGGAGUUCUACAGUCCGACGAUCCAGGGGACGCGAAGGGGCGCUCCGCGCGGCGGGCGCGGCUCUCUGGUCCCCCUCCCCGGCGAUCCCUUUGCCCCCCGAGAUCCCCGCGACGGCGGAAAGCCCGGAGUCCGCGCGGCCUCCCAACAGAGGAUUGAGCAUCA
B14: chr19:8913615:8913616:-_ENSMUSG00000071658_ENSMUST00000096259|mus_hu|mus_mus_mus_hu_False|18_28 (ssRNA)
RNA: GGGAGUUCUACAGUCCGACGAUCAGGGUACCAAAACCUUCUGCCUGAAAUGGGUGCCCCACCCAGUAGGGAGUUGCAGCUGAAAGUAUCUGAUGCAGAAGCAGUGAAUGCAGAGAAGGUCACUAGAGGGGAGGGCCAGGCCAGCAACAGAGGAUUGAGCAUCA
B15: chr6:57703266:57703267:-_ENSMUSG00000037788_ENSMUST00000114297|mus_hu|FALSE|FALSE (ssRNA)
RNA: GGGAGUUCUACAGUCCGACGAUCAAGAGGCUCUGAUUAGUUCAUUAAAAAAUAAGCACCCCCACCUCAUUCCCCGUGAUACAGCACAUCUAGUAAUCUAGGCGCCUCAGCUAAGCUGCAUAGCUCUUAGCACACAGGACAGGUCAACAGAGGAUUGAGCAUCA
B16: chr8:92090715:92090716:+_ENSG00000155100_ENST00000285420|hu_mus|FALSE|FALSE (ssRNA)
RNA: GGGAGUUCUACAGUCCGACGAUCUCUCAGCUGAUCCUCAAGUGCUCCAUACAUACAGUGACCAUCAGAUGGAAUCUGUUUAAUUUCCAAUUCUCUGGCUGCCAAUAUUUGAGCAAGUUUUUCACUCUCAAGAUGUCUGGCUCCCAACAGAGGAUUGAGCAUCA
B17: chr8:80577299:80577300:+_ENSG00000104435_ENST00000220876|hu_mus|FALSE|FALSE (ssRNA)
RNA: GGGAGUUCUACAGUCCGACGAUCUAUUUUUUAACAAAAAUGUAAAUAUUUACAAAAUAAGAUCCAAGGUACUUUUUUAAACAUCAAGCAAAACAUUCUGCAAAGAGACCGCAUUGAUUUUUAUUUUAUUUUUGAUUCUGUUUUCAACAGAGGAUUGAGCAUCA
B18: chr5:38529146:38529147:-_ENSMUSG00000029126_ENSMUST00000031009|mus_mus|motif|central (ssRNA)
RNA: GGGAGUUCUACAGUCCGACGAUCAGAAAAGCUAAAGUAGCCCUGGCUUACCCAAAAUUACAUUUCACUUUGCCCACUGGCGGAUAAAACAAAACAAAACAAAACAAAAAACCCAAACUGCACCUGCAUUCAGGGCUGUACGUGCAACAGAGGAUUGAGCAUCA
B19: chr1:109605286:109605287:-_ENSG00000197780_ENST00000461096|hu_mus|hu_hu_hu_mus_True|88_98 (ssRNA)
RNA: GGGAGUUCUACAGUCCGACGAUCAAGUUUCAGAGUAUUCAGUGAUCUACUUAAAUCAUGCAAUUAUCCUUAUUAUAAGCUAAGCAGAAUAAUAAUUUAAUACCGUAAGUGAACUACACACAAAGCCUGAACCGCGAAAAUGGUCAACAGAGGAUUGAGCAUCA
B20: chr1:94914393:94914394:-_ENSMUSG00000014602_ENSMUST00000171796|mus_mus|motif|central (ssRNA)
RNA: GGGAGUUCUACAGUCCGACGAUCCCUUUAUUGCUCCAUUUUGGGAACUGUUCCCUCAGAAGGGUGACUUCUGAAUUGUCGGAGUCUCAGAACUUGCACAACCUCUCACACACGUACCAUGCAAGGUGCAUCUCAGACAAAACUCAACAGAGGAUUGAGCAUCA
B21: chr7:149068622:149068623:-_ENSMUSG00000025139_ENSMUST00000001950|mus_hu|mus_mus_mus_hu_False|8_68 (ssRNA)
RNA: GGGAGUUCUACAGUCCGACGAUCGUGAGGCCUCUGAGUGUGGCUUGUGGUCUGUCCUGGGUUAGAGCUGCUGGUAACACGGAACAUACCAUCUAGAACGUUCCAGUCCCGCCUGACACCUUCAUUCGCAAGAGGGCAGAAAUCCAACAGAGGAUUGAGCAUCA
B22: chr7:140404665:140404666:+_ENSG00000090266_ENST00000247866|hu_hu|hu_hu_hu_mus_False|38_78 (ssRNA)
RNA: GGGAGUUCUACAGUCCGACGAUCUGCUCCUACUCGUCCAGAGAGUUUACAGUGUCAGUCUUCAUCAUCAGGAGGGAUUCCCAGUUCUUCAUCUGUCCACUGGGAAGGAUCUGGAUAUGAAAAGUGACCCAGCACAGCAUCCGACAACAGAGGAUUGAGCAUCA

The other results are listed elsewhere or left out.

The assay addresses T1, UNK ZnF1-3 (human, UniProt Q9C0B0 31-174).
T1 sequence: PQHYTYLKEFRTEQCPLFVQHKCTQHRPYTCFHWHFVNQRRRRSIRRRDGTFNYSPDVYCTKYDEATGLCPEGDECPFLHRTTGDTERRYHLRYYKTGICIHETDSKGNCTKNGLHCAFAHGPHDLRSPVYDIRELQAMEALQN
In words: nsRBNS (natural sequence RNA bind-n-seq); RBNS binding buffer (assumed for nsRBNS): 25 mM Tris pH 7.5, 150 mM KCl, 3 mM MgCl2, 0.01% Triton X-100, 500 ug/ml BSA, 20 U/ml SUPERase-In, 4 C; UNK is unkempt and MSI1 is Musashi-1; names of the RNAs are library labels; protein concentration not given here; high values mean tight binding.
Molecule B1 returned a binding signal of 1.34 enrichment R.
As to B2, the binding signal was 1.13 enrichment R.
For B3, the binding signal worked out at 2.87 enrichment R.
The value for B4 was 0.705 enrichment R.
On to B5, for which the binding signal was found to be 0.541 enrichment R.
The value for B6 was 2.52 enrichment R; that for B7 was 0.762 enrichment R.
For B8 the value was 0.887 enrichment R; for B9, 0.651 enrichment R.
For B10 the value was 1.05 enrichment R.
Take B11: the binding signal was determined as 0.903 enrichment R.
For B12, the binding signal came out at 0.473 enrichment R.
As to B13, the binding signal amounted to 1.3 enrichment R.
The value for B14 was 1.52 enrichment R.
Molecule B15 showed a binding signal of 1.51 enrichment R.
Regarding B16, the binding signal came to 0.922 enrichment R.
B17 came in with a binding signal of 1.54 enrichment R.
B18 registered a binding signal of 1.58 enrichment R.
Molecule B19 had a binding signal of 0.687 enrichment R.
The value for B20 was 0.787 enrichment R; that for B21 was 0.953 enrichment R; that for B22 was 1.5 enrichment R.

(Values after PMC12136788.)
